According to the supplement of paper PMC7335073:
Whole data set: some 4,100 sequences, median “relative CpG methylation activity (normalised to average over all NNNCGNNN flanks)” near 0.87, cut for the highest 2% near 2.4. The list shows a part of the results.

target: DNMT3A catalytic domain (mouse) (UniProt O88508); assay: relative CpG methylation activity (normalised to average over all NNNCGNNN flanks) (relative (1 = mean)); higher = more methylation of the central CpG; settings: system: in vitro, murine catalytic domain; CpG state: hemimethylated substrate pool; residues: 608-908
How it was run: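 For Illumina sequencing, DNA was processed by proteinase K, BsaI-HFv2 digestion, hairpin ligation, bisulfite conversion and two-step PCR after methylation by murine DNMT3A or DNMT3B catalytic domain. The methylation reaction contained 0.8 mM S-adenosyl-L-methionine in HEPES pH 7.5 buffer and ran at 37 °C for 60 min on pooled dsDNA substrates with a central CpG inside 10 random flanking nucleotides. Relative methylation activity was computed as the average methylation of each flanking context divided by the mean over all contexts. Contexts covered three flanking bases per side, and there were two independent repeats per experiment.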

Sequence	relative CpG methylation activity
CGACGCTA	0.737
CGCCGGTT	0.367
TCTCGAGA	0.833
GTACGAGA	1.45
CACCGATT	0.784
ATACGTGT	0.724
CCTCGAGT	0.92
CTGCGTGA	0.75
GGGCGGCG	0.625
GGACGATC	0.878
TAACGGGC	1.18
TCTCGGTG	0.645
AAGCGGTA	0.377
ACGCGAGG	0.63
CAGCGTGA	0.0962
ATTCGACG	0.74
TTACGTTA	2.55
GAACGAGT	0.576
AGTCGACT	0.424
GCGCGCGA	1.04
ACTCGTCC	1.54
GATCGTGC	0.14
CTTCGAAG	0.625
TGACGACA	1.01
CCCCGGCC	1.55

Sequence	relative CpG methylation activity
AGGCGCGT	0.449
GTACGATC	1.9
CTACGTAT	1.54
GCGCGATT	0.714
ATTCGCCT	2
TCTCGTCC	1.43
GAGCGTCC	1.08
CAACGCCC	1.52
GGGCGCAG	0.347
CTCCGTGC	0.671
TATCGTTT	0.739
TCGCGGTT	0.563
TGCCGGGC	0.764
TGCCGCTT	1.45
CCACGCAC	1.81
AACCGCAG	0.436
AACCGAGG	0.346
CCCCGCCG	1.72
ACTCGACC	1.26
TATCGGTG	0.17
AATCGCGA	0.352
AGACGGCA	0.868
AAGCGGGC	0.635
CCACGGGT	1.19
TGTCGTAA	0.629

Sequence	relative CpG methylation activity
TACCGAAT	0.769
TTACGCCT	2.38
GCGCGTTG	0.402
CATCGGGC	0.363
CGCCGACG	0.849
CATCGATA	0.563
TGACGTTC	0.739
TTACGGAG	1
CGACGGGG	0.274
TCTCGGTA	0.739
ACTCGCAT	0.822
TGCCGTGG	0.0833
GTGCGATT	0.955
TGACGTGG	0.122
AAACGCTG	0.861
TCACGTTG	0.702
GCTCGGAT	0.804
CGTCGTTT	0.632
GGACGGTT	0.486
AGTCGGTC	0.658
CTTCGAGA	1.22
GCGCGCGT	1.08
GTGCGCGA	1.31
TATCGGGG	0.29
CTTCGGAT	0.781

Sequence	relative CpG methylation activity
AAACGTGC	0.409
ACTCGCGT	0.867
ATCCGACC	1.88
TACCGAAC	1.38
TGTCGTTT	0.652
TTTCGGAC	1.23
CACCGGGC	0.89
TGGCGACT	0.737
AGCCGGAG	0.227
TCACGTAT	1.25
ACACGCGT	1.25
CGGCGCTT	1.54
CAACGTTT	0.628
ATCCGAGA	1.6
TAGCGCTT	0.818
TAACGTTA	0.654
TCGCGCGA	0.745
ACCCGGTT	0.844
GCCCGTAG	0.719
GGGCGACA	0.645
GCGCGAGA	0.455
CGGCGCAA	0.604
GAGCGAAG	0.348
CGACGATC	0.899
ATTCGAGG	0.743

Sequence	relative CpG methylation activity
GAGCGTAG	0.34
GCGCGGGC	0.915
AGCCGTCA	1.05
GGTCGCAG	0.167
CCACGAGC	2.13
GATCGGGC	0.225
TCGCGGCG	0.676
ACGCGCGC	1.12
ATCCGAAT	1.06
GCACGAGG	0.755
GGGCGATG	0.662
GCTCGTAC	0.86
CGTCGTCA	0.704
CTGCGAAC	1.7
GCACGTAA	1.66
ATCCGCAG	1.01
TAACGTGT	0.503
TAGCGCGG	0.0538
TGACGCGC	0.749
CCCCGCAC	1.55
GACCGTGG	0.101
GATCGTGA	0.286
CCACGTCA	1.71
GGGCGAAG	0.523
AAACGCCT	1.45

Sequence	relative CpG methylation activity
TGGCGGTC	0.536
ACGCGATT	0.863
CGTCGTAG	0.312
GGACGTAA	1.02
AGGCGCTT	1.19
CATCGCTA	0.886
GCTCGTCA	1.5
GCGCGCTT	1.52
CCACGATG	0.724
GTGCGGTA	1
CTGCGCCA	2
TCACGGGA	1
CATCGCAA	0.819
ACACGACT	1.48
GGACGACG	0.584
CTACGCGA	1.97
TTCCGTTA	1.63
AAGCGAGC	0.914
TTGCGGCC	1.4
CCACGCAG	0.809
ATGCGATC	2.09
TCGCGGCA	0.811
CGGCGAAT	0.409
AAACGTTC	0.696
GGACGACC	0.541

Sequence	relative CpG methylation activity
CCGCGACC	1.31
CACCGCCT	2.05
ATGCGATA	1.27
ATACGCCT	2.76
ATGCGAGG	1.14
AATCGTAA	0.534
GTCCGACG	1.59
ATACGGGT	1.42
CAACGAGT	0.788
ATGCGCTG	1.96
CATCGTTG	0.208
ACACGCAT	1.53
TCCCGGCG	0.385
GAACGGCC	1.34
ATGCGTTC	1.5
CAGCGGCG	0.514
CGCCGCAA	0.839
GGGCGCTG	1.55
ATTCGGAA	0.353
ATTCGGGG	0.25
TAACGCAC	0.937
CGCCGTGT	0.187
CTACGCGG	0.702
ACTCGGTG	0.33
ACACGGAG	0.745

Sequence	relative CpG methylation activity
GTTCGTTC	1.53
TCGCGACA	1.09
GTTCGCTA	1.15
TCCCGTAC	0.784
TAGCGTAC	0.434
CTGCGGTT	1.22
TCGCGCGC	0.817
TCGCGAGA	0.575
GTTCGGAG	0.25
CGTCGTGT	0.338
ACGCGCCA	1.48
TTGCGCTT	2.22
GTTCGTTG	0.427
CGACGGTG	0.333
TGTCGAAC	0.773
AGTCGGAA	0.497
TGGCGAAC	0.788
CTACGATA	1.67
TGTCGCGC	0.58
CAACGCGG	0.31
GTACGAGG	0.909
AGGCGAGT	0.529
CTGCGATT	1.09
CGACGGTC	0.969
TCGCGTTA	0.929

Sequence	relative CpG methylation activity
GGGCGTAA	0.636
ACTCGACT	0.791
CAACGTAA	1.1
GCTCGGCT	0.732
ATACGTAC	1.88
CGACGTTT	0.19
TTTCGTGC	0.815
GTACGTCG	1.85
TTCCGAGG	1.51
TCGCGTCG	1.35
CTTCGCAA	1.52
ATCCGTAT	0.922
TGGCGAGA	0.521
GGGCGAGC	1.52
AGGCGCAG	0.331
GAGCGCAT	0.683
GACCGCTA	0.986
ATACGGTC	2.39
AAGCGAGG	0.24
GATCGAGA	0.292
TTCCGAAT	1.95
CTCCGACG	1.71
GGTCGGTC	0.625
CTTCGGCG	0.962
TTGCGGTG	0.648

Sequence	relative CpG methylation activity
AGGCGGCG	0.154
CTACGCTG	1.75
CCCCGCTA	0.969
GGTCGTTA	0.592
GCGCGTGT	0.46
CCGCGAGC	1.49
TAACGTTG	0.511
CAACGATT	0.678
AATCGACC	0.395
CTGCGCGA	1.63
TCACGAGG	0.943
GTACGTTT	1.27
TCCCGTCG	2.02
AGGCGCCC	1.44
GATCGAGG	0.098
ACACGTTT	1.18
TCTCGAGC	1.31
GGACGCTG	1.07
AATCGGAT	0.219
GTCCGGGG	0.917
GATCGGGT	0.0694
GGGCGTGT	0.349
CGCCGTCT	1.54
CTACGGTT	1.57
GAGCGGCC	1.46

Sequence	relative CpG methylation activity
CCCCGGTC	1.45
CGCCGAGA	0.789
CTTCGTCA	2.02
ACACGGGC	1.61
GCACGGAT	1.2
GCTCGAAC	1.33
CCCCGAGG	0.684
ATCCGCAT	1.94
TGGCGCTA	0.596
AGTCGTGT	0.198
AATCGGAA	0.35
TAGCGGGG	0.116
ACACGGTT	0.925
GTCCGACC	2.06
TCTCGTTC	0.763
TCCCGACC	1.53
CCACGGAG	0.478
CAGCGTGT	0.191
GACCGGCT	0.938
GGTCGTCA	0.941
CTACGTTA	1.92
CGGCGGGT	0.357
TCCCGCCA	1.51
GCCCGTTG	0.508
TTACGCAA	2.55

Sequence	relative CpG methylation activity
TGGCGAAA	0.596
TCGCGTCC	1.42
TTGCGTCT	1.67
TCACGATC	1.8
TACCGTTT	0.414
TAGCGCAC	0.675
ATCCGCTA	1.78
TATCGCCG	1.21
CCCCGGGG	0.685
GCACGTGA	0.545
ATCCGCTG	1.62
ACTCGTGA	0.87
TAGCGTCG	0.759
CTTCGCCG	1.97
CACCGCTT	1.67
GGCCGCGC	0.966
AGTCGAAA	0.457
GCCCGTCC	1.99
CCCCGGGT	1.1
ACGCGCCG	1.59
CCGCGAAC	1.48
GTACGACG	1.63
TCCCGCAG	0.382
TGTCGCCA	1.34
GGCCGAGT	1.05

Sequence	relative CpG methylation activity
GTACGCAT	2.11
AGCCGGAT	0.42
TGTCGACT	0.459
GCGCGAGG	0.649
AAGCGTAC	0.602
CCTCGCTT	1.75
CAACGGCG	0.65
ACTCGGGG	0.426
ATACGAGA	1.65
AAACGTCT	1.02
GTCCGCAT	1.37
ATTCGCCC	2.29
ACGCGTGG	0.288
AAACGGAA	0.803
TACCGACC	0.79
TCTCGAGT	0.778
AATCGAAA	0.447
AATCGGGG	0.0633
CCGCGTCA	1.37
AGTCGCTT	1.03
TAGCGAGA	0.51
CGACGATT	0.644
CGCCGGAC	0.958
AATCGAAG	0.111
TATCGCGG	0.258

Sequence	relative CpG methylation activity
CAACGACC	0.804
CAGCGTCA	0.574
CGACGAAG	0.435
TCTCGGCT	0.538
CGCCGTGA	0.439
GAACGTAG	0.707
ACTCGTCA	1.77
CGCCGCCG	1.35
TTTCGATC	1.11
GTTCGCGC	1.17
TCACGGAC	1.78
GTACGTTG	0.784
ACTCGCGC	1.26
CGACGACG	0.689
TTGCGCAT	1.21
CCCCGCTT	1.66
TGACGTTG	0.495
CCACGCGT	1.09
AGGCGAAC	1.05
